# Article PMC4336329 (PLoS ONE, 2015)
# Screen size: about 310,000 compounds; about 14,000 (4.5%) showed an effect of 50% or more. Effects have a minus sign here. This is one part of the list.
# Target: human ether-à-go-go-related gene (hERG) potassium channel (human, UniProt Q12809)
# Test: primary screen, population patch clamp on CHO cells stably expressing hERG
# 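Further: peak tail current of the secondary pulse compared with the same well before compound.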
# human ether-à-go-go-related gene (hERG) potassium channel, sequence (Q12809 whole entry, looked up): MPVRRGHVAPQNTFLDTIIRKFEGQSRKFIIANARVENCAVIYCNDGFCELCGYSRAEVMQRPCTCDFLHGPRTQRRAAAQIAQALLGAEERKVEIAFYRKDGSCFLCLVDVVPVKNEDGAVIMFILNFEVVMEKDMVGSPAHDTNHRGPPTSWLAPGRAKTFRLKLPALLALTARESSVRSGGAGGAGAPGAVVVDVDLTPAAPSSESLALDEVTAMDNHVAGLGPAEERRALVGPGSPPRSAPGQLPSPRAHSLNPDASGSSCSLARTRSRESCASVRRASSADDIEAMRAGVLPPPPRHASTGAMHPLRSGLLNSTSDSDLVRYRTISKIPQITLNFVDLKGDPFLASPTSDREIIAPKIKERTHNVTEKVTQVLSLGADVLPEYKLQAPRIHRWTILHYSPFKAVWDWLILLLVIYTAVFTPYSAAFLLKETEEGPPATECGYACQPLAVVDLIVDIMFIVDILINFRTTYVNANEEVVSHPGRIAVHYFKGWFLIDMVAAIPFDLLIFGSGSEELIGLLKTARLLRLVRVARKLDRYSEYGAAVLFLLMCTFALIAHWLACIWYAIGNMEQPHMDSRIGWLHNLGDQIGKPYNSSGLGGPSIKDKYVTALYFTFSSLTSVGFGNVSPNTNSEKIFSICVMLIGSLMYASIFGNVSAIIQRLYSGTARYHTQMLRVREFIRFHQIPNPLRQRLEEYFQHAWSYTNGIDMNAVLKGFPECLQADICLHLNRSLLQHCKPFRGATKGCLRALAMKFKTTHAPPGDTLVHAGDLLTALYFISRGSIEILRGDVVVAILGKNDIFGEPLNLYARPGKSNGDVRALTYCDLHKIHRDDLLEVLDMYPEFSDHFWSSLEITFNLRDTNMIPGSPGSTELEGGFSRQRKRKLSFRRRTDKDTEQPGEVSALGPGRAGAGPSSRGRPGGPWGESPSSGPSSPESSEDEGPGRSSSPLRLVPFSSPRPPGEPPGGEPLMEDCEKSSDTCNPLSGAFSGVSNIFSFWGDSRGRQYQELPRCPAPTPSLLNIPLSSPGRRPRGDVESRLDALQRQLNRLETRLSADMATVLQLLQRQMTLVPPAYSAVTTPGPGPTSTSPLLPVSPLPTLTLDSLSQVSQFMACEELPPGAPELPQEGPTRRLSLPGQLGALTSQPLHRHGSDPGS
row,SMILES,"hERG current change (%, negative = inhibition) at 10uM"
1,CC(=O)c1ccc(NC(=O)c2noc(C(C)C)c2[N+](=O)[O-])cc1,19.9%
2,COc1cc(C(=O)NCc2ccc(C(=O)NCC(OC)OC)cc2)cc(OC)c1OC,17.2%
3,COc1ccc(CC(=O)Nc2ccccc2C(=O)NCCc2ccccc2)cc1,20.9%
4,Cc1csc(N(C(=O)c2ccccc2F)c2ccccc2)n1,13.9%
5,CCC(=O)Nc1cccc(NC(=S)NC(=O)c2ccccc2Cl)c1,9.98%
6,CCOc1ncccc1C(=O)OCC(=O)Nc1ccc(-c2nc3ccc(C)cc3s2)cc1,16%
7,CCCCCNC(=O)c1ccc2c(=O)n(CCCN3CCCC3=O)c(=S)[nH]c2c1,-3.01%
8,Cc1cc(CNC(=O)c2cccc(OC3CCN(S(=O)(=O)N(C)C)CC3)c2)on1,0.225%
9,O=C(CCNC(=O)c1ccccc1)OCC(=O)c1ccccc1,23%
10,COC(=O)c1c(C(=O)OC)c(-c2ccc(C)cc2)n2c1CS(=O)(=O)C2,-18.1%
11,COc1cc(NC(=O)Cc2cccs2)cc(OC)c1,-1.87%
12,COc1ccccc1CNc1ncccn1.O=C(O)C(=O)O,23.6%
13,O=C(CCCCCn1c(=S)[nH]c2cc3c(cc2c1=O)OCO3)N1CCN(c2ccc(F)cc2)CC1,3.78%
14,O=C(O)c1cc(CN2CCOCC2)oc1-c1ccccc1,13.2%
15,COc1ccc(-n2c(SCC(=O)N3CCCC(C)C3)nnc2-c2cccnc2)cc1 (stereo not shown),-13.8%
16,O=C(O)c1cn(-c2ccc(F)cc2)c2cc(Cl)c(F)cc2c1=O,16%
17,Fc1ccc(C2NCCn3cccc32)cc1.O=C(O)/C=C/C(=O)O (stereo not shown),-3.11%
18,COc1ccc(Cn2nnnc2C(c2cc3ccc(OC)cc3[nH]c2=O)N2CCC(C)CC2)cc1 (stereo not shown),-24.2%
19,CN1CCN(CCC(=O)N/N=C/c2ccccc2F)CC1,12.1%
20,COc1ccc(C(=O)n2cc(C(C)=O)c3ccccc32)cc1,6.09%
21,Cc1cccc(C)c1OCc1cc(C(=O)N2CCN(c3ccccc3)CC2C)no1 (stereo not shown),7.3%
22,COc1ccc(CCN(C)C(=O)CCNC(=O)c2ccc(Br)cc2)cc1OC,-12.5%

row,SMILES,"hERG current change (%, negative = inhibition) at 10uM"
1,CCOc1ccc(N(C(C)C(=O)N/N=C(\C)c2cccc(NC(=O)c3ccccc3)c2)S(C)(=O)=O)cc1 (stereo not shown),-19.4%
2,CNC(=S)N(Cc1cccs1)Cc1cc2ccc(OC)cc2[nH]c1=O,6.44%
3,CC(=O)N1Cc2ccccc2C(C)CC12CCCC2 (stereo not shown),-7.34%
4,CCn1c(CNC(=O)C2CCCCC2)cc2ccccc21,26%
5,CCCCNc1ccc(C(=O)Nc2cccc(C)n2)cc1[N+](=O)[O-],4.74%
6,O=C(O)CCn1nnc(-c2ccccc2)n1,8.06%
7,O=C(/C=C/c1ccco1)Nc1cccc(NC(=O)/C=C/c2ccco2)n1,-4.72%
8,O=C(NCCCCCCNC(=O)NCc1ccco1)NCc1ccco1,-2.97%
9,CC(C)(C)c1ccc(S(=O)(=O)N2CCC(N3CCCCC3)CC2)cc1,-36.4%
10,Cn1c(SCc2c(F)cccc2Cl)nc2ccccc2c1=O,18.1%
11,O=C(CN1C(=O)c2ccccc2S1(=O)=O)NCc1cccs1,0.969%
12,CCCCCc1nc2ccccc2c(=O)n1-c1ccc(Cl)cc1[N+](=O)[O-],2.95%
13,N#Cc1ccc(C23CC4(C2)[C@H](CN(Cc2ccc(-c5ccccc5)cc2)[C@@H]4c2ccccc2)C3c2ccc(Cl)nc2)cc1 (stereo partly shown),-4.31%
14,CC(NC(=O)c1ccccc1F)c1nnc(SCC(=O)Nc2nccs2)n1C (stereo not shown),7.9%
15,CCC1Oc2ccccc2N(CC(=O)NC2CCCCC2)C1=O (stereo not shown),11.8%
16,Cc1cc(C)n(S(=O)(=O)c2ccc(Cl)cc2)n1,13.4%
17,COc1ccc(N2CCN(S(=O)(=O)c3cc(C)ccc3OC)CC2)cc1,-2.29%
18,CCN1CCN(Cc2ccc(NC(=O)c3ccc(C)c(NC(=O)C[C@@H]4NC(=O)[C@H](Cc5ccccc5)NC4=O)c3)cc2C(F)(F)F)CC1,10.3%
19,COc1cc(NC(=S)Nc2ccc(OC(F)F)cc2)cc(OC)c1,-43.7%
20,Cc1cccc(NC(=O)C2CCN(S(=O)(=O)c3cccc4cccnc34)CC2)n1,-11.8%
21,O=C1CCCC2=C1C(c1ccco1)Nc1ccc3ccccc3c12 (stereo not shown),-6.02%
